# Measurements: article PMC12136788
# Some of the results follow.
# T1: UNK ZnF1-3 (human, UniProt Q9C0B0 31-174)
# T1 sequence: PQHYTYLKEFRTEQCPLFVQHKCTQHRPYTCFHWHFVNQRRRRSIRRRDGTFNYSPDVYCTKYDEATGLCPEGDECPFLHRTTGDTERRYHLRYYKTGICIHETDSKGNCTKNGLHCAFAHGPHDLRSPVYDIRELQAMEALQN
# B1: 98613764_98613884_684_3pUTR_ENSMUSG00000031310_ENSMUST00000121520|mouse|control|control (ssRNA)
# RNA: GGGAGUUCUACAGUCCGACGAUCAGCCCCUUCUCCUUGUAGCUAAGGGGGGUAUCUCCUCUUCAAUAUGAGGAGACUCCAGGAUUAUUGGAGAAUCUGGAGCCAAAGGUUCUAGUAGCCCCUCAGGUGAAGGGGGACUAGCCCCAACAGAGGAUUGAGCAUCA
# B2: chr3:197553776:197553777:+_ENSG00000186001_ENST00000438796|hu_hu|motif|central (ssRNA)
# RNA: GGGAGUUCUACAGUCCGACGAUCGCAUGAGAAGUCUAACCGUAUCAAAGGCAACUCCGCCAGCUCUUCAGGCAAAUGUACGGGGUGAUUUCUUCUUACAUUAAGGUCUCUCAAGGCCUCCAGGUUACCAAUUUGGGAAGGUAUCAACAGAGGAUUGAGCAUCA
# B3: 9437880_9438000_2913_3pUTR_ENSMUSG00000040209_ENSMUST00000041124|mouse|control|control (ssRNA)
# RNA: GGGAGUUCUACAGUCCGACGAUCCCAGUCUGGAGUUUUCUACCUGGGCGGGGUUGGAGAGCAGAAUGCUAACCCAGAGUCCUGGCUAUGGUCUUGGCAGAACCAAGCAGGACACACUAUCCAGGCUGCAGUGUGUGUGAUAUCCAACAGAGGAUUGAGCAUCA
# B4: chr12:76570751:76570752:-_ENSMUSG00000021051_ENSMUST00000021447|perfect_dup|motif|central (ssRNA)
# RNA: GGGAGUUCUACAGUCCGACGAUCUGUUUCAUAAACAAACCUUAGAAAAAUAUUGUUAAUUUGUUUUCGGAUAAAUGCUCGGAGCCCGAGAAACUUGCCAUAAAUCCUGUGCAAGACUGUUUUUAAAUAGUCCCGUUCUCGAGGCAACAGAGGAUUGAGCAUCA
# B5: 28350707_28356662_537_CDS_ENSMUSG00000049643_ENSMUST00000067386|mouse|control|control (ssRNA)
# RNA: GGGAGUUCUACAGUCCGACGAUCGGUGCUGUUGUCUGACCGCCGUGUGGGGGUAUGGGGUGGAGAGUCAUGGUUCAGGCUGUUGGCAAUCAUUCGAGAAGCGGCACUAGAAGCGCCUCGGCGAAGCUCACCCUGGAGCGGGCUCAACAGAGGAUUGAGCAUCA
# B6: chr17:85413340:85413341:+_ENSMUSG00000061130_ENSMUST00000080217|mus_hu|motif|central (ssRNA)
# RNA: GGGAGUUCUACAGUCCGACGAUCUCAAUUUUACACUAUCUCAUAAAGGUGUAUGCAAAGGCCUUUUUAAAAAACAAGGCGGUCUGAAUAUAAUAAAACUAGUUUUCCAAGAUUCAAAUAACAAAACAGUUAUAUAAAUGCAUACAACAGAGGAUUGAGCAUCA
# B7: chr19:36145531:36145532:+_ENSG00000126267_ENST00000246554|hu_hu|FALSE|FALSE (ssRNA)
# RNA: GGGAGUUCUACAGUCCGACGAUCAUCCCAGUCUGUGACCCAGGAUGUGGGGCAGAGGGACUGGUACACACGCUGGUACCAUUCGCACACAGAGAUAUCGCCUCCUUUAGCGGUCAUUGCCUUCUGACAGCGGUGGAAGUCCAGCAACAGAGGAUUGAGCAUCA
# B8: 27589336_27589456_4307_3pUTR_ENSG00000108256_ENST00000225388|human|control|control (ssRNA)
# RNA: GGGAGUUCUACAGUCCGACGAUCAACCUGUAAAACAAACUGGAGCCUUUUUUCCCUUUAAUCAACCUUAUAUGUCUUUUUUUUUAACUUUUUGAAAAUUUUUAUUUAAAAAAACACAAAAACACAGACUUUUUUCACUUCAGUCAACAGAGGAUUGAGCAUCA
# B9: chr3:63791606:63791607:+_ENSMUSG00000027823_ENSMUST00000029405|mus_mus|FALSE|FALSE (ssRNA)
# RNA: GGGAGUUCUACAGUCCGACGAUCAAGUAAAACAAUUUCUUCCUUCUGCAGGCCCCUGAAUAAUGAACACGUAUUAUCCAUACUAAUGUUGAAAACUCCAUCCUCUCUAACACUUUUUUUAUGCACAGUGCCUCCAAAGACUUUCAACAGAGGAUUGAGCAUCA
# B10: chr14:62207481:62207482:+_ENSG00000100644_ENST00000337138|hu_mus|FALSE|FALSE (ssRNA)
# RNA: GGGAGUUCUACAGUCCGACGAUCGGAACGUAACUGGAAAUCAUCAUCCAUUGGGAUAUAGGGAGCCAGCAUCUCCAAAUCUAAAUCAGUGUCCUGAGUUGAAAAUGGAUUCUUUGCCUCUGUGUCUUCAGCAAACAGUUUUUCCAACAGAGGAUUGAGCAUCA
# B11: 31094576_31094696_1819_3pUTR_ENSMUSG00000029168_ENSMUST00000114729|mouse|control|control (ssRNA)
# RNA: GGGAGUUCUACAGUCCGACGAUCUCUCUCUGUACCAGCUUCUUAUAGACAAUGUCUGGGAAAGACCGCAGGGGACAGAACUUGCCAGUGCCCUCUGCACACAUGAAGACGCCGUUCUCAUACACGACUCGUCCCCGGCUGAUGCAACAGAGGAUUGAGCAUCA
# B12: 32956884_32975425_4088_CDS_ENSG00000060749_ENST00000399302|human|control|control (ssRNA)
# RNA: GGGAGUUCUACAGUCCGACGAUCAGUAGUUGCCACCUGUAGGGCUUCUGUUUUCUUCUUUUUAUCAGAAGUAGCAUCCAAAGUAGUUAAGGGAGUAGAGACGCUUUUAUAAGCAUCUUGACUAUAUCCAGGAUCAUCUUCAUCCAACAGAGGAUUGAGCAUCA
# B13: chr2:175006660:175006661:-_ENSG00000138430_ENST00000344357|hu_hu|FALSE|FALSE (ssRNA)
# RNA: GGGAGUUCUACAGUCCGACGAUCUAUAAUGGGCCCAAUCAUUUCCUCAUCUUUAAGCUGAAGCUCUUCAUGUAUUAUUUCUAUAUCUCGAAUAGGAUCUACACUUCCUUCAACGUGCGUGAUAUCAUCAUCUUCAAAAGCACGCAACAGAGGAUUGAGCAUCA
# B14: chr2:115689366:115689367:-_ENSMUSG00000027210_ENSMUST00000074285|mus_mus|motif|central (ssRNA)
# RNA: GGGAGUUCUACAGUCCGACGAUCUCUUUGAAGAACAGUCCCCCAAAAUCAUAAUAAGAAUUGGCUUAUGAAGCACAAACGGUAAAGAUCUGUUUGAAACUAAAGGACACAUGGACGGGGGGAACAAAGGCCGGGCAUGAAAACCAACAGAGGAUUGAGCAUCA
# B15: chr1:225611761:225611762:-_ENSG00000143815_ENST00000272163|hu_mus|hu_hu_hu_mus_True|28_48 (ssRNA)
# RNA: GGGAGUUCUACAGUCCGACGAUCCCAGGCCAUCGGCCUCUGACCACUUCACCCUCAACAAACUUCCUACUUGGCAUUUUCUAAAAUUAACCUGCGCGCGCUCCGGCCGGUGACACGGCCACUCCAGGACAGUCACCAGCAGCCCAACAGAGGAUUGAGCAUCA
# B16: 10090341_10099430_716_CDS_ENSG00000071127_ENST00000499869|human|control|control (ssRNA)
# RNA: GGGAGUUCUACAGUCCGACGAUCACAGUUGACAAAGCGGCUGUGGUCGCCAAUUGUGAACUUGAACUUGAAUGGGGGUCCCUCAAAGAAUGCCGCGCAGUUAUCAUCGCUUCCCGUGGCCAGCCGGUAUGGCCGGCUCUGCUUCAACAGAGGAUUGAGCAUCA
# B17: chr18:46858332:46858333:-_ENSG00000141627_ENST00000269445|hu_mus|FALSE|FALSE (ssRNA)
# RNA: GGGAGUUCUACAGUCCGACGAUCCGACUGCUGAGGGAAGACAUGGGUUCCGGGCGGAGGUGGCUUUUCUUGUCUGAUAAAGUUAUACAAUAAGGUUUUCACAAGUUUACUGGUGUAGGGAAGACAUGGGCCUUGCAUCAGGUACAACAGAGGAUUGAGCAUCA
# B18: chr4:175231952:175231953:+_ENSG00000164118_ENST00000503780|hu_hu|FALSE|FALSE (ssRNA)
# RNA: GGGAGUUCUACAGUCCGACGAUCAUUCAGAAGGUCCAUGUCACUACAAGAAGCGUAGUCUUCACUAACUUCAUUAAACUCUAUAAAUUCAUCAUUCUUUUUAGACAAAAGCAUUUCUGUUUCAAGAAGAGUGACACGACUAAGCAACAGAGGAUUGAGCAUCA
# B19: chr15:68825492:68825493:+_ENSMUSG00000022332_ENSMUST00000022954|mus_mus|motif|central (ssRNA)
# RNA: GGGAGUUCUACAGUCCGACGAUCUAUCACCACGUCAAUGUACUUCUCUUCCUCCUUGCCUUCUCCCUUUUGAAACUUUUCGGUUUCUCGGUUCACCAAGCGCAGGGCGUGCGUGAAGGAGGGGUCCAGAGAGUCCUUCUCCGCCAACAGAGGAUUGAGCAUCA
# B20: chr7:141445308:141445309:+_ENSG00000106028_ENST00000265304|hu_hu|hu_hu_hu_mus_False|28_28 (ssRNA)
# RNA: GGGAGUUCUACAGUCCGACGAUCUAUGAUUGUUGUUGCUUGCCGCCUCACAUUGUUUUUAUCCAUGUACUCGCCAUAGUCCACUUUCCCUUCCACAAAUAUACGAGACCCCUUUUUCACAUACUGAUAUGCCACAUCUCUGAGCAACAGAGGAUUGAGCAUCA
# B21: chr7:7679991:7679992:-_ENSG00000106399_ENST00000396682|hu_hu|hu_hu_hu_mus_False|1_58 (ssRNA)
# RNA: GGGAGUUCUACAGUCCGACGAUCUGGGAUGAAUCUUUUCCAGCUUCCCCACGAAGCACACGGGCCGGUCGAUAUACUGAGCUAGCAUGCUGGCGUUGACGCGCGCUUUGGGGAGCUGCAUUAUGUCCUCCAUGAUUAUGGUCCCAACAGAGGAUUGAGCAUCA
# B22: chrX:103214973:103214974:+_ENSMUSG00000031231_ENSMUST00000033582|mus_mus|motif|central (ssRNA)
# RNA: GGGAGUUCUACAGUCCGACGAUCAGAAACACAGAAGAUGGCUCCACCUGCUAAUAUAGCAUUCCCAUAUUUGUCAUGGAAACGGGGUGCCCUCUUCUGGUGGCUCUGCCUUGCCACCACUUGCUGAAUGCUUCGAACUUGGAGCAACAGAGGAUUGAGCAUCA
# Target: T1, UNK ZnF1-3
# Assay: nsRBNS (natural sequence RNA bind-n-seq); RBNS binding buffer (assumed for nsRBNS): 25 mM Tris pH 7.5, 150 mM KCl, 3 mM MgCl2, 0.01% Triton X-100, 500 ug/ml BSA, 20 U/ml SUPERase-In, 4 C; UNK is unkempt and MSI1 is Musashi-1; names of the RNAs are library labels; protein concentration not given here; high values mean tight binding
row,Binder,binding signal [enrichment R]
1,B1,0.771
2,B2,0.749
3,B3,0.986
4,B4,1.29
5,B5,1.19
6,B6,0.894
7,B7,0.897
8,B8,1.24
9,B9,1.3
10,B10,1.4
11,B11,0.843
12,B12,0.863
13,B13,1.18
14,B14,2.33
15,B15,1.15
16,B16,0.514
17,B17,1.35
18,B18,0.704
19,B19,0.792
20,B20,0.687
21,B21,0.502
22,B22,1
